This is one part of the list. The full chains were built here from the parent and the listed change. Values near 0.05 are background.
B1: TEV protease; numbered along this chain (parent)
chain: MGESLFKGPRDYNPISSSICHLTNESDGHTTSLYGIGFGPFIITNKHLFRRNNGTLVVQSLHGVFKVKDTTTLQQHLVDGRDMIIIRMPKDFPPFPQKLKFREPQREERICLVTTNFQTKSMSSMVSDTSCTFPSGDGIFWKHWIQTKDGQCGSPLVSTRDGFIVGIHSASNFTNTNNYFTSVPKNFMELLTNQEAQQWVSGWRLNADSVLWGGHKVFMVKPEEPFQPVKEATQL

Variants of: B1
Experiment: raw area under fraction-flipped curve 0-4 h after induction (AUC4h, not background-subtracted), DNA-recorder readout of cleavage of the substrate (dimensionless); higher = more cleavage of the substrate by the protease variant
Settings: temperature: 34 °C; time window: 0-4 h after rhamnose induction
Procedure: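 In vivo DNA recorder in E. coli TOP10(DE3) ΔrhaA at 34 °C. Each TEVp single-site mutant (parent TEVp 0) is paired with a single-site variant of the 7-mer TEVs (canonical ENLYFQ|S). The substrate sits between flexible linkers in a Bxb1-sfGFP-TEVs-SsrA fusion, so cleavage stabilises Bxb1 and speeds flipping of a recombination array, read by NGS. The value is the raw area under the fraction-flipped curve over 0-4 h after rhamnose induction (AUC4h), with ≥20 reads per time point. It is not background-subtracted; inactive controls average about 0.047.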
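Further: Bxb1 expression induced with 0.2% (w/v) L-rhamnose at OD600 near 0.5, cultures sampled hourly, flipped fraction per protease–substrate barcode pair counted by paired-end Illumina sequencing.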

Variant | area with substrate ENAYFQS | area with substrate ENCYFQS | area with substrate ENDYFQS | area with substrate ENEYFQS | area with substrate ENFYFQS | area with substrate ENGYFQS | area with substrate ENHYFQS | area with substrate ENIYFQS | area with substrate ENNYFQS | area with substrate ENPYFQS | area with substrate ENQYFQS | area with substrate ENRYFQS | area with substrate ENSYFQS | area with substrate ENTYFQS | area with substrate ENVYFQS | area with substrate ENYYFQS | area with substrate ENMYFQS | area with substrate ENWYFQS | area with substrate ENKYFQS
MGESLFKGPRDYNPISSSICHLTNESDGHTTSLYGIGFGPFIITNKHLFRRNNGTLVVQSLHGVFKVKDTTTLQQHLVDGRDMIIIRMPKDFPPFPQKLKFREPQREERICLVTTNFQTKSMSSMVSDTSCTFPSGDGIFWKHWIQTKDGQCGSPLVSTRLGFIVGIHSASNFTNTNNYFTSVPKNFMELLTNQEAQQWVSGWRLNADSVLWGGHKVFMVKPEEPFQPVKEATQL [D161L] | 0.0472 | 0.0543 | 0.0571 | 0.0545 | 0.0481 | 0.0535 | 0.0621 | 0.0636 | 0.0659 | 0.055 | 0.0313 | 0.0404 | 0.0632 | 0.0655 | 0.0475 | 0.047 | – | – | –
MGESLFKGPRDYNPISSSICHLTNESDGHTTSLYGIGFGPFIITNKHLFRRNNGTLVVQSLHGVFKVKDTTTLQQHLVDGRDMIIIRMPKDFPPFPQKLKFREPQREERICLVTTNFQTKSMSSMVSDTSCTFPSGDGIFWKHWIQTKDGQCGSPLVSTRNGFIVGIHSASNFTNTNNYFTSVPKNFMELLTNQEAQQWVSGWRLNADSVLWGGHKVFMVKPEEPFQPVKEATQL [D161N] | 0.043 | 0.0692 | 0.0741 | 0.0458 | 0.0457 | 0.0605 | – | 0.0707 | 0.0627 | – | 0.0571 | 0.0563 | 0.0485 | 0.0766 | – | – | 0.0612 | 0.0472 | –
MGESLFKGPRDYNPISSSICHLTNESDGHTTSLYGIGFGPFIITNKHLFRRNNGTLVVQSLHGVFKVKDTTTLQQHLVDGRDMIIIRMPKDFPPFPQKLKFREPQREERICLVTTNFQTKSMSSMVSDTSCTFPSGDGIFWKHWIQTKDGQCGSPLVSTRDEFIVGIHSASNFTNTNNYFTSVPKNFMELLTNQEAQQWVSGWRLNADSVLWGGHKVFMVKPEEPFQPVKEATQL [G162E] | 0.0599 | 0.0533 | 0.0694 | 0.0547 | – | – | 0.0708 | – | – | 0.0575 | 0.0951 | 0.0387 | – | 0.0485 | – | – | – | 0.0646 | 0.0713
MGESLFKGPRDYNPISSSICHLTNESDGHTTSLYGIGFGPFIITNKHLFRRNNGTLVVQSLHGVFKVKDTTTLQQHLVDGRDMIIIRMPKDFPPFPQKLKFREPQREERICLVTTNFQTKSMSSMVSDTSCTFPSGDGIFWKHWIQTKDGQCGSPLVSTRDQFIVGIHSASNFTNTNNYFTSVPKNFMELLTNQEAQQWVSGWRLNADSVLWGGHKVFMVKPEEPFQPVKEATQL [G162Q] | 0.0731 | 0.0606 | 0.0457 | 0.0606 | 0.0615 | 0.0585 | – | – | 0.0529 | – | 0.0826 | 0.0511 | 0.0603 | 0.0572 | 0.0789 | – | – | – | –
MGESLFKGPRDYNPISSSICHLTNESDGHTTSLYGIGFGPFIITNKHLFRRNNGTLVVQSLHGVFKVKDTTTLQQHLVDGRDMIIIRMPKDFPPFPQKLKFREPQREERICLVTTNFQTKSMSSMVSDTSCTFPSGDGIFWKHWIQTKDGQCGSPLVSTRDTFIVGIHSASNFTNTNNYFTSVPKNFMELLTNQEAQQWVSGWRLNADSVLWGGHKVFMVKPEEPFQPVKEATQL [G162T] | 0.0576 | 0.064 | – | 0.0593 | 0.0371 | 0.0779 | 0.0147 | – | – | – | 0.0533 | – | 0.0547 | – | – | 0.0648 | – | – | 0.0516
MGESLFKGPRDYNPISSSICHLTNESDGHTTSLYGIGFGPFIITNKHLFRRNNGTLVVQSLHGVFKVKDTTTLQQHLVDGRDMIIIRMPKDFPPFPQKLKFREPQREERICLVTTNFQTKSMSSMVSDTSCTFPSGDGIFWKHWIQTKDGQCGSPLVSTRDYFIVGIHSASNFTNTNNYFTSVPKNFMELLTNQEAQQWVSGWRLNADSVLWGGHKVFMVKPEEPFQPVKEATQL [G162Y] | 0.063 | – | 0.0548 | 0.069 | 0.0729 | – | 0.0546 | – | – | – | 0.0674 | 0.0514 | 0.0589 | 0.0325 | 0.0544 | 0.0559 | – | 0.0412 | 0.0832
MGESLFKGPRDYNPISSSICHLTNESDGHTTSLYGIGFGPFIITNKHLFRRNNGTLVVQSLHGVFKVKDTTTLQQHLVDGRDMIIIRMPKDFPPFPQKLKFREPQREERICLVTTNFQTKSMSSMVSDTSCTFPSGDGIFWKHWIQTKDGQCGSPLVSTRDGFIHGIHSASNFTNTNNYFTSVPKNFMELLTNQEAQQWVSGWRLNADSVLWGGHKVFMVKPEEPFQPVKEATQL [V165H] | 0.0568 | – | 0.0492 | 0.0482 | – | 0.0584 | – | – | – | 0.0516 | 0.0467 | – | – | 0.0574 | 0.0371 | – | – | – | –
MGESLFKGPRDYNPISSSICHLTNESDGHTTSLYGIGFGPFIITNKHLFRRNNGTLVVQSLHGVFKVKDTTTLQQHLVDGRDMIIIRMPKDFPPFPQKLKFREPQREERICLVTTNFQTKSMSSMVSDTSCTFPSGDGIFWKHWIQTKDGQCGSPLVSTRDGFIKGIHSASNFTNTNNYFTSVPKNFMELLTNQEAQQWVSGWRLNADSVLWGGHKVFMVKPEEPFQPVKEATQL [V165K] | 0.0526 | – | 0.0569 | 0.054 | – | 0.0706 | – | 0.0696 | – | – | 0.052 | 0.057 | 0.0617 | 0.0526 | 0.0616 | 0.0575 | 0.0545 | 0.0535 | 0.0529
MGESLFKGPRDYNPISSSICHLTNESDGHTTSLYGIGFGPFIITNKHLFRRNNGTLVVQSLHGVFKVKDTTTLQQHLVDGRDMIIIRMPKDFPPFPQKLKFREPQREERICLVTTNFQTKSMSSMVSDTSCTFPSGDGIFWKHWIQTKDGQCGSPLVSTRDGFIQGIHSASNFTNTNNYFTSVPKNFMELLTNQEAQQWVSGWRLNADSVLWGGHKVFMVKPEEPFQPVKEATQL [V165Q] | 0.047 | 0.0344 | – | 0.0648 | 0.0568 | – | 0.0391 | – | 0.0462 | – | 0.0526 | 0.0586 | 0.0484 | 0.0397 | 0.0549 | – | – | – | –

Source: the supplement of paper PMC12217912
